Measured values taken from a compilation of properties of binary mixtures (doi:10.1016/j.jcis.2010.04.060).
Some of these densities may be calculated back from excess volumes.

Test: xn = mol fraction of the nth substance listed
Conditions: 101 kPa

CCCC[n+]1ccn(C)c1.N#C[S-] + CCCCCCO
mass density [kg/m3]
Conditions | x2 = 0.059 | x2 = 0.1569 | x2 = 0.2766 | x2 = 0.3568 | x2 = 0.5983 | x2 = 0.7512 | x2 = 0.904
298.15 K | 1060.1 | 1042.8 | 1019.8 | 1003.1 | 945.2 | 901.3 | 850.9
308.15 K | 1054.2 | 1036.8 | 1013.7 | 996.9 | 938.7 | 894.7 | –
318.15 K | – | 1030.8 | 1007.6 | 990.8 | 932.4 | 888 | 836.9
328.15 K | 1042.5 | 1025 | 1001.7 | 984.8 | 926.1 | 881.4 | 829.9
338.15 K | 1036.6 | 1019 | 995.7 | – | 919.7 | 874.7 | 822.6

CCCC[n+]1ccn(C)c1.N#C[S-] + CCCCCO
mass density [kg/m3]
Conditions | x2 = 0.0373 | x2 = 0.1246 | x2 = 0.2218 | x2 = 0.3458 | x2 = 0.4581 | x2 = 0.5783 | x2 = 0.6977 | x2 = 0.832
298.15 K | 1064.5 | 1051.1 | 1035 | 1012.2 | 988.6 | 959.3 | 925.3 | –
308.15 K | 1058.7 | 1045.2 | – | 1006.1 | – | 953 | – | –
318.15 K | – | 1039.1 | 1023 | 1000 | 976.1 | 946.5 | 912.1 | 866.3
328.15 K | 1047 | 1033.3 | 1017.1 | 994 | 970 | 940.2 | 905.6 | –
338.15 K | – | 1027.4 | – | 988 | – | – | – | 852.4

CCCC[n+]1ccn(C)c1.N#C[S-] + CCCCO
mass density [kg/m3]
Conditions | x2 = 0 | x2 = 0.0878 | x2 = 0.1903 | x2 = 0.329 | x2 = 0.5279 | x2 = 0.6716 | x2 = 0.8107 | x2 = 0.8827
298.15 K | – | 1058.4 | 1043.9 | 1022.1 | – | 943.2 | 894.6 | 864.5
308.15 K | 1063.9 | 1052.4 | – | 1016 | 975.7 | 936.6 | 887.6 | 857.3
318.15 K | – | 1046.5 | 1031.9 | 1010 | 969.4 | – | – | 850
328.15 K | 1052.2 | 1040.7 | 1026 | 1003.9 | 963.1 | 923.4 | 873.6 | 842.6
338.15 K | – | – | 1020 | 997.8 | 956.9 | 916.8 | – | 835.2

CCCCCCO + CCCC[n+]1ccn(C)c1.N#C[S-]
x1 = 1
Conditions | mass density [kg/m3]
308.15 K | 807.7
318.15 K | 800.4
328.15 K | 792.9
338.15 K | 785.2

CCCCCO + CCCC[n+]1ccn(C)c1.N#C[S-]
x1 = 1
Conditions | mass density [kg/m3]
298.15 K | 810.9
308.15 K | 803.5
318.15 K | 796
328.15 K | 788.3
338.15 K | 780.4

CCCCO + CCCC[n+]1ccn(C)c1.N#C[S-]
x1 = 1
Conditions | mass density [kg/m3]
298.15 K | 805.8
308.15 K | 798.1
318.15 K | 790.2
328.15 K | 782.2
338.15 K | 773.9
